Measurements: paper PMC2172719 (The Journal of Cell Biology, 2003)

B1: His-tagged p97 QE mutant (enzyme)
chain: not shown
B2: His-tagged p97 EQ mutant (enzyme)
chain: not shown
B3: His-tagged p97 AA mutant (enzyme)
chain: not shown
B4: His-tagged p97 QQ mutant (enzyme)
chain: not shown
B5: His-tagged p97 AK mutant (enzyme)
chain: not shown
B6: His-tagged p97 KA mutant (enzyme)
chain: not shown

Biological target: the molecule itself
Experiment: SEC

Stoichiometry N, 6:
B1, B2, B3, B4, B5, B6
